Test results taken from PubChem BioAssay AID504333 (National Center for Advancing Translational Sciences (NCATS), 2011).
The whole screen tested about 360,000 compounds, of which about 16,000 (4.4%) were called active. Inconclusive results, whose numbers are uncertain, are shown with a selection of clear calls. Calls come from the whole dose curve; as a rule, active = well fitted inhibition curve with a large enough effect; inconclusive = small, poorly fitted or top-dose-only effect; inactive = no such curve, though single readings can be large or run the other way. Potencies of inconclusive entries are doubtful fits and often do not repeat.

Molecular target: Bromodomain adjacent to zinc finger domain protein 2B (Homo sapiens) (UniProt Q9UIF8)
Test: qHTS Assay for Inhibitors of BAZ2B; note: nearly all actives have a fitted effect of over 60% in size
Conditions: AlphaScreen BAZ2B-H3K14Ac peptide displacement; activity change, negative = inhibition: at 114 µM (top of the series)
In short: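 AlphaScreen displacement of biotin-H3(5-23)K14Ac peptide (50 nM final) from BAZ2B (50 nM final) in PBS pH 7.4, 0.01% Tween-20; complex preformed 30 min RT, then compounds (top 110 uM) 30 min RT, beads 20 min dark.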
% is set by controls: 0 for no effect and ±100 for the full control effect; potency is the fitted concentration of half-maximal effect; tags give direction and shape of the fitted curve.

Sequence of UniProt Q9UIF8 (Q9UIF8 whole entry, looked up, the tested form may be a part): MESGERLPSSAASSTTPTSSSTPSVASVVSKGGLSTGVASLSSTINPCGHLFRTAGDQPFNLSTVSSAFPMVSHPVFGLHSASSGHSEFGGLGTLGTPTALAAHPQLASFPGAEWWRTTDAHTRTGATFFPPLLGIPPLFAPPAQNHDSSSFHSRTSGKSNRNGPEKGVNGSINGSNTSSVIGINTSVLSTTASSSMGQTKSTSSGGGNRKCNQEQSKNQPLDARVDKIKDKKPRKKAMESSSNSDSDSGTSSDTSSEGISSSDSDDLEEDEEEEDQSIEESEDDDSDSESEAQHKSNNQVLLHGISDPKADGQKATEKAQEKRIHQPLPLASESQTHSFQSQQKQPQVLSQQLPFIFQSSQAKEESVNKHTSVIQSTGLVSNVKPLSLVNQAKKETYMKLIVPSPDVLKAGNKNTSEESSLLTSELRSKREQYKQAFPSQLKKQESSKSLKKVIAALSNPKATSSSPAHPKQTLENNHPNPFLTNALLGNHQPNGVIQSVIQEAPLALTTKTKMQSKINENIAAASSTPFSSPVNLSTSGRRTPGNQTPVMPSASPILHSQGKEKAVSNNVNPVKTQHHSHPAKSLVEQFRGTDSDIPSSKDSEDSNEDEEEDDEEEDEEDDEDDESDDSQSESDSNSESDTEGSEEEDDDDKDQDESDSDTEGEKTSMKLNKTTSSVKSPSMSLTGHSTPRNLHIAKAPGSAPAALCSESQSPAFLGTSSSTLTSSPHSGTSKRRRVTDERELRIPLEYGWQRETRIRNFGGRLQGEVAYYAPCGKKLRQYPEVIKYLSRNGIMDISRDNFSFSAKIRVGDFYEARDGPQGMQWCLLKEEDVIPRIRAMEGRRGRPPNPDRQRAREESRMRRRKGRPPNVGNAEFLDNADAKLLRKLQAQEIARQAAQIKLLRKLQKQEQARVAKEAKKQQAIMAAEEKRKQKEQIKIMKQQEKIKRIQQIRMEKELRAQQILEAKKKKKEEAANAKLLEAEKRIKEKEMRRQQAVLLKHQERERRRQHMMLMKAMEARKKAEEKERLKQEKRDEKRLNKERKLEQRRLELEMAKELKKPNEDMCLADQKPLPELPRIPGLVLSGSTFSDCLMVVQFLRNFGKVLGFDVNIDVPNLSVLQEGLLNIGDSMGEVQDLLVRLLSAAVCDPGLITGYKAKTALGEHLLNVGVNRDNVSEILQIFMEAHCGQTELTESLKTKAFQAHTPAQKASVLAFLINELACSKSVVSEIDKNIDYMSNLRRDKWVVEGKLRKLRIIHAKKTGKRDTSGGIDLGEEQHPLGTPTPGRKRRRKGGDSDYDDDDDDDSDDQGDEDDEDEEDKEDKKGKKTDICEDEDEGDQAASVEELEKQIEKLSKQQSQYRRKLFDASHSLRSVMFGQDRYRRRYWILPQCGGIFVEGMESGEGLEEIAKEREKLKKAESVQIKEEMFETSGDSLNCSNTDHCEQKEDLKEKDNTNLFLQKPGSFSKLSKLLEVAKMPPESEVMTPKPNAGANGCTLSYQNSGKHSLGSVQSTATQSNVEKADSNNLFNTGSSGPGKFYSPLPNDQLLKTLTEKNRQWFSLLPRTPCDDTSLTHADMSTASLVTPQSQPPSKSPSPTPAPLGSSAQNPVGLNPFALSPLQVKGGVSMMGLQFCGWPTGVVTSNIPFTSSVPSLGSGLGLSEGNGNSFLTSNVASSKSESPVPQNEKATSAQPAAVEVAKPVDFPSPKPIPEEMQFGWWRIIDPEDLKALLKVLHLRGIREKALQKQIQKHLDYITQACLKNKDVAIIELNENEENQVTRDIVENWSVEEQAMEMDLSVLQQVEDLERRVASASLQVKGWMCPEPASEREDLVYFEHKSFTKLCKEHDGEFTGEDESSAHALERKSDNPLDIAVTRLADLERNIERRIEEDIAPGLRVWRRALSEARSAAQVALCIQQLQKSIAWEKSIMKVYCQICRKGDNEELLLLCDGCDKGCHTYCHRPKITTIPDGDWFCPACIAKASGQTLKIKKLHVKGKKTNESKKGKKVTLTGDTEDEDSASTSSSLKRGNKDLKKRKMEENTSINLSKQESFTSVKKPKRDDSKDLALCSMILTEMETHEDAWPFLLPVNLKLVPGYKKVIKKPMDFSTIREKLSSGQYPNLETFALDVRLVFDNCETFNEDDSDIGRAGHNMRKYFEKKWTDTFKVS

SMILES	Potency	activity change, negative = inhibition
CCOC(=O)C1=C(C)N=c2s/c(=C/c3cccc([N+](=O)[O-])c3O)c(=O)n2C1c1ccc(OC)cc1OC (stereo not drawn)	active: 5.01 µM	
CSc1ccccc1OCc1cc(C(=O)N(C)Cc2cc(C)[nH]n2)no1	inconclusive: 79.4 µM [inhibitor, single point]	
COc1cc(C(=S)N2CCOCC2)cc(OC)c1OC(=O)c1cc([N+](=O)[O-])c(C)c([N+](=O)[O-])c1	inconclusive: 79.4 µM [inhibitor, single point]	
CC(C)(C)c1cc(C2=CSC3=NCCN23)cc(C(C)(C)C)c1O	inconclusive: 79.4 µM [inhibitor, single point]	
CCc1cc2c(nc1CC)CCN(CC/C(C)=N/OC[C@H]1O[C@H](c3ccccc3)C=C[C@@H]1Oc1ccc(OC)cc1)C2	inconclusive: 35.5 µM [inhibitor, partial curve]	
O=C1CC(Sc2ncn[nH]2)C(=O)N1c1ccccc1 (stereo not drawn)	inconclusive: 89.1 µM [inhibitor, single point]	
C=CCN1CCN(C(c2ccc(OC)c(OC)c2)c2nnnn2C(C)(C)C)CC1 (stereo not drawn)	active: 79.4 µM	
Cc1ccc(NC(=O)/C=C/c2ccc(C)o2)c(C)c1	active: 79.4 µM	
Cc1ccc(S(=O)(=O)N2CCC(=O)N(C(COCc3ccc(Cl)cc3Cl)Cc3ccccc3)CC2)cc1 (stereo not drawn)	inconclusive: 31.6 µM [inhibitor, partial curve, poor fit]	
Cc1cc(C(=O)CNCc2ccco2)c(C)n1-c1ccc(F)cc1	active: 56.2 µM	
O=C(NNc1ccc([N+](=O)[O-])cc1[N+](=O)[O-])C1C2CCCCC21 (stereo not drawn)		inactive: -15.8%
CC1=NN(c2ccc(C)cc2C)C(=O)C1C(c1cccc(O)c1)C1C(=O)N(c2ccc(C)cc2C)N=C1C (stereo not drawn)		inactive: -9.29%
O=C(NCCc1ccccc1)c1cc(S(=O)(=O)N2CCCCC2)c[nH]1	inconclusive: 89.1 µM [inhibitor, single point]	
Cc1cccc(N(C)S(=O)(=O)c2ccc3c(c2)C(C)(C)C(=O)N3C)c1	inconclusive: 89.1 µM [inhibitor, single point]	
COc1ccccc1-n1nnnc1SCC(=O)Nc1ccc(C)c(N)c1		inactive: -16.3%
O=C(CSc1nc(C2CC2)nc2ccccc12)N1c2ccccc2Sc2ccc(C(F)(F)F)cc21		inactive: 6.53%
COc1cccc(C2NC(=O)CCC2[N+](=O)[O-])c1OC (stereo not drawn)		inactive: -2.01%
Cc1cccc2cc(/C=N/NC(=O)c3ccccc3O)c(Cl)nc12	inconclusive: 79.4 µM [inhibitor, single point]	
COc1ccc(OC)c(CCNC(=O)c2ccc3c(=O)[nH]c4c(C(=O)NC(C)C)sc(=S)n4c3c2)c1	active: 39.8 µM	
Cc1ccc(CN(C)C(=O)c2cc(COc3cccc(C(F)(F)F)c3)on2)o1		inactive: -5.26%
COc1ccc(O)c(C=NCC(C)N=Cc2cc(OC)ccc2O)c1 (stereo not drawn)	inconclusive: 79.4 µM [inhibitor, single point]	
COc1ccccc1N1CCN(c2ncccc2-c2nc(-c3ccc(Cl)cc3)no2)CC1		inactive: -3.64%

SMILES	Potency	activity change, negative = inhibition
CCc1ccc(C(=O)c2cn(CC(=O)Nc3ccc(OC)c(OC)c3)c3ccc(C)cc3c2=O)cc1	inconclusive: 79.4 µM [inhibitor, single point]	
CC12CC3CC(C)(C1)CC(Nc1nc(N4CCOCC4)nc4ccccc14)(C3)C2		inactive: 3.94%
O=C(CSc1nc(-c2ccc(F)cc2)[nH]c1-c1ccccc1)NCC1CCCO1 (stereo not drawn)	inconclusive: 79.4 µM [inhibitor, single point]	
Cc1cc(C)cc(NC(=O)CN2CCc3ccccc3C2)c1	active: 31.6 µM	
Cc1cccc2cc(CN(C(=S)NCC(C)C)C3CCCC3)c(=O)[nH]c12	inconclusive: 79.4 µM [inhibitor, single point]	
CSc1ccccc1NC(=O)c1cc(-c2cccnc2)nc2ccc(Br)cc12	inconclusive: 89.1 µM [inhibitor, single point]	
C=CCOc1ccc(/C=C2/C(=N)N3N=C(CC(=O)N4CCCC4)SC3=NC2=O)cc1OC	inconclusive: 79.4 µM [inhibitor, single point]	
COc1ccc2c(CC(=O)OCC(=O)c3ccccc3OC)coc2c1		inactive: -6.72%
COc1ccc(/C=C2\C(=O)ON=C2c2ccccc2)cc1	inconclusive: 70.8 µM [inhibitor, single point]	
Cc1nc(-c2cccc(S(=O)(=O)N3CCCC(C)C3)c2)cs1 (stereo not drawn)	inconclusive: 35.5 µM [inhibitor, single point]	
Cc1ccc(C(=O)NCc2occc2C(=O)O)o1	inconclusive: 89.1 µM [inhibitor, single point]	
COc1cc(O)c(C(CC(=O)N2CCCC2)c2ccc(N(C)C)cc2)c(OC)c1 (stereo not drawn)	inconclusive: 50.1 µM [inhibitor, partial curve]	
CCS(=O)(=O)N1CCN(S(=O)(=O)c2ccccc2[N+](=O)[O-])CC1	inconclusive: 100 µM [inhibitor, single point]	
COc1ccc(O)c(CN2CCC(n3nccc3NC(=O)c3ccccc3Cl)CC2)c1		inactive: -35.6%
COc1ccc(OC)c(NC(=O)CSc2nnc(-c3ccco3)n2-c2ccccc2)c1	inconclusive: 25.1 µM [inhibitor, full curve, poor fit]	
COc1cccc(OCCNc2cc(N3CCCCC3)ccc2[N+](=O)[O-])c1	inconclusive: 8.91 µM [inhibitor, full curve]	
C(=C\c1ccccc1)/CN1CCN(C(c2ccccc2)c2ccccc2)CC1	inconclusive: 79.4 µM [inhibitor, single point]	
O=C1c2ccccc2NC(c2cccc(F)c2)N1Cc1ccco1 (stereo not drawn)	active: 56.2 µM	
O=C(CC1(O)C(=O)Nc2ccccc21)c1ccc(-n2cccc2)cc1 (stereo not drawn)	inconclusive: 44.7 µM [inhibitor, partial curve]	
Cc1c(NS(=O)(=O)c2ccccc2)cc(C(C)C)c(O)c1S(=O)(=O)c1ccc(Cl)cc1		inactive: -26.8%
COc1ccc(-c2cn(-c3ccc(C)cc3)c(=O)n2CC(=O)Nc2cccc(F)c2)cc1	inconclusive: 20 µM [inhibitor, full curve]	
